Test system: hemagglutinin protein in FluZone influenza vaccine
[1] = FluZone, 0.2 μg hemagglutinin + 20 μg adjuvant s.c. day 0 and 14, pooled sera 14 days post secondary

## N—[(R)-3-Tetradecanoyloxytetradecanoyl]-(S)-2-pyrrolidinomethyl 2-Deoxy-4-O-phosphono-2-[(R)-3-tetradecanoyloxytetradecanoylamino]-3-O—[(R)-3-tetradecanoyloxytetradecanoyl]-β-D-glucopyranoside Triethylammonium Salt [RC-553]
Example 3, text
  FluZone titers versus antigen alone: significantly higher than control sera receiving antigen alone
[1]
  Serum Titer IgG: 51,200
  Serum Titer IgG1: 102,400
  Serum Titer IgG2a: 25,600
  Serum Titer IgG2b: 6400

— US7501399B2, “Immunoeffector compounds” (Corixa Corporation, priority 2000, dated 2009)
